These results are taken from the supplement of paper PMC11417369.

± gives the standard deviation of the averaged measurements. Some of the results follow.

For the assay, the system named is PfAP2-G AP2 domain (GST-tagged). Briefly: gcPBM binding intensity (ln(normalized median fluorescence intensity)); higher = stronger DNA binding. The essentials: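 In this array assay, P. falciparum DNA-binding domains with a GST tag, expressed in E. coli, were applied for 1 h to primer-extended double-stranded 36-bp intergenic genomic probes and negative controls on an Agilent 4 × 180k array. Bound protein was visualised with Alexa488 anti-GST antibody at 488 nm. Binding intensity is the highest Masliner-normalised natural-log median intensity across replicate spots of either probe orientation.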
With “AATATAAACAGACACACACACATATAGATTTATATT [CACACA_site7382]”, the “gcPBM binding intensity (ln)” value stood at 10.04 ± 0.057.
Take “TAATAAGTACCTTTTGCATGTGGCACGCTTTTTTTT [TGCATGCA_site573]”: the “gcPBM binding intensity (ln)” value came to 10.9 ± 0.41.
As for “TATTATATAACAAAAAGTACTTATAAGAAATATATA [XGTACX_site5467]”, the figure is 11.2 ± 0.79.
As for “AAATGAATTATATAATATATATAAATAAATAAATAA [CACACA_negctrl_site359]”, the figure is 9.565 ± 0.092; as for “AAATTTTTTAATTTTTCTCATTTAATTTAAAAATTA [GTGCAC_negctrl_site155]”, 9.57 ± 0.21; as for AAATTAAAGATAAAAGTGCAAAATTATAAATTTATT, 9.76 ± 0.12.
Turning to “AAATTAATGAAATATACACACATATATAAATATATA [CACACA_site4378]”, the “gcPBM binding intensity (ln)” value stood at 9.675 ± 0.064.
As for “ATAAAAAAGCAACATCATATGTTTTTATAGAGTATT [CACACA_negctrl_site745]”, the figure is 9.62 ± 0.22.
For “AACAAGTTGCATGGTGCACACATGTATTTATATCTA [CACACA_site5414]”, the “gcPBM binding intensity (ln)” value was 10.4 ± 0.4.
As for “TATTAAAAATATTATGTACACACATTTTAGATATTT [CACACA_site8549]”, the figure is 11.4 ± 0.8.
As for “AAAAGTATATATTCAGTGCATAGTCTTTAAATATAA [GTGCAC_site9522]”, the figure is 9.875 ± 0.007.
Next, “ATAAGCATCTGGATATGTACTTATTCCTTTAAAGAT [XGTACX_site6225]”: 11.2 ± 0.82.
Consider “TATATATAACATTGTACACACAAAGAAATAATATTA [CACACA_site3035]”, for which the “gcPBM binding intensity (ln)” value amounted to 11.3 ± 0.97.
On to “ATATAAATAAAAAAAAAAAAAAAAAAAAAAAAAAAA [CACACA_negctrl_site972]”, for which the “gcPBM binding intensity (ln)” value was 9.52 ± 0.21.
Take “TTAAAATTTTAAAAATTTTAATTTTACAAAAAAAAT [TGCATGCA_negctrl_site227]”: the “gcPBM binding intensity (ln)” value came to 9.56 ± 0.23.
Next, “TTTCTTTCTTTCTTTTTTTAAATATTTTTTAAAAAT [TGCATGCA_negctrl_site206]”: 10.04 ± 0.014; “TATGCTACATTATATGTACACACATATACATATATA [CACACA_site8199]”: 11.3 ± 0.93; “ATTTATACGTAATATGCATAAATATAAATATATATA [XGTACX_negctrl_site133]”: 10 ± 0.14.
Next, “TATTGTAAGAAAGGCACACAGATAAAATTATTATAT [CACACA_site2921]”: 10.06 ± 0.021; “AAGAAAAATATTCGTGTGCACAGAAGTATATGTGTG [GTGCAC_site9814]”: 10.5 ± 0.2.
With “ACAAGTTAAAATATTACACACATATAAATATTTATA [CACACA_site7467]”, the “gcPBM binding intensity (ln)” value turned out to be 10 ± 0.18.
As for “ATCATCTTTATTCAAGTGCACTGAAAATTTTTTATA [GTGCAC_site9801]”, the figure is 10.4 ± 0.33; as for “ATATAAGTGTATCTAACACACAAATATATAAAAATG [CACACA_site1956]”, 10.2 ± 0.35.
As for “ATAATTATATGGCTAGCACACAATAAATAATTATAT [CACACA_site3815]”, the figure is 10 ± 0.12.
